Earlier results on 1 compound are cited in patent US9907859B2 (priority 2010, dated 2018).

Like-named read-outs stand apart in the source and are kept apart here.

The conditions of the data set: cited from earlier work.

For `CC(O)COC[C@H]1O[C@@H]2O[C@H]3[C@H](O)[C@@H](O)[C@@H](O[C@H]4[C@H](O)[C@@H](O)[C@@H](O[C@H]5[C@H](O)[C@@H](O)[C@@H](O[C@H]6[C@H](O)[C@@H](O)[C@@H](O[C@H]7[C@H](O)[C@@H](O)[C@@H](O[C@H]8[C@H](O)[C@@H](O)[C@@H](O[C@H]1[C@H](O)[C@H]2O)O[C@@H]8COCC(C)O)O[C@@H]7COCC(C)O)O[C@@H]6COCC(C)O)O[C@@H]5COCC(C)O)O[C@@H]4COCC(C)O)O[C@@H]3COCC(C)O` (stereo partly drawn) [2-hydroxypropyl-β-cyclodextrin], the “Aqueous solubility (g/100 mL)” value reads like this: (at 25° C.) 65%; (at 50° C.) 80%.
